Laboratory results: the supplement of paper PMC12217912
The other results are listed elsewhere or left out. The full chains were built here from the parent and the listed change. Inactive controls read about 0.05.

B1: TEV protease; numbered along this chain (parent)
chain: MGESLFKGPRDYNPISSSICHLTNESDGHTTSLYGIGFGPFIITNKHLFRRNNGTLVVQSLHGVFKVKDTTTLQQHLVDGRDMIIIRMPKDFPPFPQKLKFREPQREERICLVTTNFQTKSMSSMVSDTSCTFPSGDGIFWKHWIQTKDGQCGSPLVSTRDGFIVGIHSASNFTNTNNYFTSVPKNFMELLTNQEAQQWVSGWRLNADSVLWGGHKVFMVKPEEPFQPVKEATQL

Variants of: B1
Assay: raw area under fraction-flipped curve 0-4 h after induction (AUC4h, not background-subtracted), DNA-recorder readout of cleavage of the substrate (dimensionless); higher = more cleavage of the substrate by the protease variant
Details: temperature: 34 °C; time window: 0-4 h after rhamnose induction
Method: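 In vivo DNA recorder in E. coli TOP10(DE3) ΔrhaA at 34 °C. Each TEVp single-site mutant (parent TEVp 0) is paired with a single-site variant of the 7-mer TEVs (canonical ENLYFQ|S). The substrate sits between flexible linkers in a Bxb1-sfGFP-TEVs-SsrA fusion, so cleavage stabilises Bxb1 and speeds flipping of a recombination array, read by NGS. The value is the raw area under the fraction-flipped curve over 0-4 h after rhamnose induction (AUC4h), with ≥20 reads per time point. It is not background-subtracted; inactive controls average about 0.047.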
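Note: Bxb1 expression induced with 0.2% (w/v) L-rhamnose at OD600 near 0.5, cultures sampled hourly, flipped fraction per protease–substrate barcode pair counted by paired-end Illumina sequencing.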

MGESLFKGPRDYNPISSSICHLTNESDGHTTSLYGIGFGPFIITNKHLFRRNNGTLVVQSLHGVFKVKDTTTLQQHLVDGRDMIIIRMPKDFPPFPQKLKFREPQREERICLVTTNFQTKSMSSMVSDTSCTFPSGDGIFWKHWIQTKDGQCGSPLVSTRDGFIVGIHSASNFTNTNNYFTSVPKNFMELLTNQEAQQWVSGWRLNADSVLWGGHKVWMVKPEEPFQPVKEATQL [F218W]
area with substrate ENLYFQA: 0.103 | area with substrate ENLYFQC: 0.119 | area with substrate ENLYFQD: 0.0619 | area with substrate ENLYFQF: 0.066 | area with substrate ENLYFQG: 0.0877 | area with substrate ENLYFQH: 0.0801 | area with substrate ENLYFQK: 0.0602 | area with substrate ENLYFQN: 0.0822 | area with substrate ENLYFQP: 0.0582 | area with substrate ENLYFQS: 0.0932 | area with substrate ENLYFQT: 0.0629

MGESLFKGPRDYNPISSSICHLTNESDGHTTSLYGIGFGPFIITNKHLFRRNNGTLVVQSLHGVFKVKDTTTLQQHLVDGRDMIIIRMPKDFPPFPQKLKFREPQREERICLVTTNFQTKSMSSMVSDTSCTFPSGDGIFWKHWIQTKDGQCGSPLVSTRDGFIVGIHSASNFTNTNNYFTSVPKNFMELLTNQEAQQWVSGWRLNADSVLWGGHKVFMVKPEEMFQPVKEATQL [P225M]
area with substrate ENLYFQA: 0.0997 | area with substrate ENLYFQC: 0.102 | area with substrate ENLYFQD: 0.0781 | area with substrate ENLYFQG: 0.118 | area with substrate ENLYFQH: 0.0645 | area with substrate ENLYFQI: 0.0595 | area with substrate ENLYFQK: 0.0636 | area with substrate ENLYFQL: 0.0647 | area with substrate ENLYFQM: 0.0791 | area with substrate ENLYFQN: 0.0788 | area with substrate ENLYFQP: 0.0568 | area with substrate ENLYFQR: 0.0696 | area with substrate ENLYFQS: 0.0868 | area with substrate ENLYFQT: 0.0675 | area with substrate ENLYFQV: 0.066 | area with substrate ENLYFQW: 0.0841 | area with substrate ENLYFQY: 0.0375

MGESLFKGPRDYNPISSSICHLTNESDGHTTSLYGIGFGPFIITNKHLFRRNNGTLVVQSLHGVFKVKDTTTLQQHLVDGRDMIIIRMPKDFPPFPQKLKFREPQREERICLVTTNFQTKSMSSMVSDTSCTFPSGDGIFWKHWIQTKDGQCGSPLVSTRDGFIVGIHSASNFTNTNNYFTSVPKNFMELLTNQEAQQWVSGWRLNADSVLWGGHKVFMVKPEEEFQPVKEATQL [P225E]
area with substrate ENLYFQA: 0.0989 | area with substrate ENLYFQG: 0.0908 | area with substrate ENLYFQH: 0.078 | area with substrate ENLYFQK: 0.058 | area with substrate ENLYFQL: 0.0735 | area with substrate ENLYFQN: 0.067 | area with substrate ENLYFQS: 0.107 | area with substrate ENLYFQT: 0.0663 | area with substrate ENLYFQW: 0.0526 | area with substrate ENLYFQY: 0.0502

MGESLFKGPRDYNPISSSICHLTNESDGHTTSLYGIGFGPFIITNKHLFRRNNGTLVVQSLHGVFKVKDTTTLQQHLVDGRDMIIIRMPKDFPPFPQKLKFREPQREERICLVTTNFQTKSMSSMVSDTSCTFPSGDGIFWKHWIQTKDGQCGSPLVSTRDGFIVGIHSASNFTNTNNYFTSVPKNFMELLTNQEAQQWVSGWRLNADSVLWGGHKVFMVKPEEGFQPVKEATQL [P225G]
area with substrate ENLYFQA: 0.0984 | area with substrate ENLYFQC: 0.114 | area with substrate ENLYFQD: 0.0782 | area with substrate ENLYFQI: 0.0555 | area with substrate ENLYFQK: 0.0519 | area with substrate ENLYFQL: 0.0628 | area with substrate ENLYFQM: 0.0947 | area with substrate ENLYFQN: 0.0736 | area with substrate ENLYFQP: 0.0628 | area with substrate ENLYFQQ: 0.0757 | area with substrate ENLYFQR: 0.061 | area with substrate ENLYFQS: 0.101 | area with substrate ENLYFQV: 0.0643 | area with substrate ENLYFQW: 0.0168 | area with substrate ENLYFQY: 0.0742

MGESLFKGPRDYNPISSSICHLTNESDGHTTSLYGIGFGPFIITNKHLFRRNNGTLVVQSLHGVFKVKDTTTLQQHLVDGRDMIIIRMPKDFPPFPQKLKFREPQREERICLVTTNFQTKSMSSMVSDTSCTFPSGDGIFWKHWIQTKDGQCGSPLVSTRDGFIVGIHSASNFTNTNNYFTSVPKNFMELLTNQEAQQWVSGWRLNADSVLWGGHKVFMVKPEEPFQPVHEATQL [K230H]
area with substrate ENLYFQA: 0.0926 | area with substrate ENLYFQC: 0.14 | area with substrate ENLYFQD: 0.0823 | area with substrate ENLYFQF: 0.0741 | area with substrate ENLYFQG: 0.097 | area with substrate ENLYFQI: 0.051 | area with substrate ENLYFQK: 0.054 | area with substrate ENLYFQL: 0.0737 | area with substrate ENLYFQM: 0.047 | area with substrate ENLYFQN: 0.0778 | area with substrate ENLYFQR: 0.0676 | area with substrate ENLYFQS: 0.109 | area with substrate ENLYFQT: 0.0578 | area with substrate ENLYFQW: 0.0481 | area with substrate ENLYFQY: 0.0584

MGESLFKGPRDYNPISSSICHLTNESDGHTTSLYGIGFGPFIITNKHLFRRNNGTLVVQSLHGVFKVKDTTTLQQHLVDGRDMIIIRMPKDFPPFPQKLKFREPQREERICLVTTNFQTKSMSSMVSDTSCTFPSGDGIFWKHWIQTKDGQCGSPLVSTRDGFIVGIHSASNFTNTNNYFTSVPKNFMELLTNQEAQQWVSGWRLNADSVLWGPHKVFMVKPEEPFQPVKEATQL [G214P]
area with substrate ENLYFQA: 0.0673 | area with substrate ENLYFQC: 0.0873 | area with substrate ENLYFQD: 0.0438 | area with substrate ENLYFQG: 0.064 | area with substrate ENLYFQK: 0.0565 | area with substrate ENLYFQM: 0.0614 | area with substrate ENLYFQR: 0.0684 | area with substrate ENLYFQS: 0.0681 | area with substrate ENLYFQV: 0.0298 | area with substrate ENLYFQY: 0.0556

MGESLFKGPRDYNPISSSICHLTNESDGHTTSLYGIGFGPFIITNKHLFRRNNGTLVVQSLHGVFKVKDTTTLQQHLVDGRDMIIIRMPKDFPPFPQKLKFREPQREERICLVTTNFQTKSMSSMVSDTSCTFPSGDGIFWKHWIQTKDGQCGSPLVSTRDGFIVGIHSASNFTNTNNYFTSVPKNFMELLTNQEAQQWVSGWRLNADSVLWGGHKVFMVKPEEPFQPTKEATQL [V229T]
area with substrate ENLYFQA: 0.0864 | area with substrate ENLYFQC: 0.108 | area with substrate ENLYFQI: 0.0496 | area with substrate ENLYFQL: 0.0762 | area with substrate ENLYFQM: 0.0905 | area with substrate ENLYFQS: 0.0888 | area with substrate ENLYFQW: 0.0507

MGESLFKGPRDYNPISSSICHLTNESDGHTTSLYGIGFGPFIITNKHLFRRNNGTLVVQSLHGVFKVKDTTTLQQHLVDGRDMIIIRMPKDFPPFPQKLKFREPQREERICLVTTNFQTKSMSSMVSDTSCTFPSGDGIFWKHWIQTKDGQCGSPLVSTRDGFIVGIHSASNFTNTNNYFTSVPKNFMELLTNQEAQQWVSGWRLNADSVLWGGHKVFMVKPEEPFQPSKEATQL [V229S]
area with substrate ENLYFQA: 0.0872 | area with substrate ENLYFQC: 0.118 | area with substrate ENLYFQF: 0.0819 | area with substrate ENLYFQG: 0.114 | area with substrate ENLYFQH: 0.0924 | area with substrate ENLYFQI: 0.0469 | area with substrate ENLYFQL: 0.0711 | area with substrate ENLYFQN: 0.0699 | area with substrate ENLYFQQ: 0.0867 | area with substrate ENLYFQR: 0.0443 | area with substrate ENLYFQS: 0.105 | area with substrate ENLYFQT: 0.072 | area with substrate ENLYFQW: 0.0706 | area with substrate ENLYFQY: 0.101

MGESLFKGPRDYNPISSSICHLTNESDGHTTSLYGIGFGPFIITNKHLFRRNNGTLVVQSLHGVFKVKDTTTLQQHLVDGRDMIIIRMPKDFPPFPQKLKFREPQREERICLVTTNFQTKSMSSMVSDTSCTFPSGDGIFWKHWIQTKDGQCGSPLVSTRDGFIVGIHSASNFTNTNNYFTSVPKNFMELLTNQEAQQWVSGWRLNADSVLWGGHKVFMVKKEEPFQPVKEATQL [P222K]
area with substrate ENLYFQA: 0.078 | area with substrate ENLYFQC: 0.0993 | area with substrate ENLYFQD: 0.0716 | area with substrate ENLYFQF: 0.0623 | area with substrate ENLYFQH: 0.0626 | area with substrate ENLYFQL: 0.0515 | area with substrate ENLYFQM: 0.064 | area with substrate ENLYFQN: 0.0643 | area with substrate ENLYFQR: 0.0451 | area with substrate ENLYFQS: 0.0957 | area with substrate ENLYFQT: 0.059 | area with substrate ENLYFQW: 0.0626 | area with substrate ENLYFQY: 0.0529

MGESLFKGPRDYNPISSSICHLTNESDGHTTSLYGIGFGPFIITNKHLFRRNNGTLVVQSLHGVFKVKDTTTLQQHLVDGRDMIIIRMPKDFPPFPQKLKFREPQREERICLVTTNFQTKSMSSMVSDTSCTFPSGDGIFWKHWIQTKDGQCGSPLVSTRDGFIVGIHSASNFTNTNNYFTSVPKNFMELLTNQEAQQWVSGWRLNADSVRWGGHKVFMVKPEEPFQPVKEATQL [L211R]
area with substrate ENLYFQA: 0.0846 | area with substrate ENLYFQC: 0.0844 | area with substrate ENLYFQI: 0.0546 | area with substrate ENLYFQK: 0.0703 | area with substrate ENLYFQL: 0.0326 | area with substrate ENLYFQN: 0.0829 | area with substrate ENLYFQQ: 0.0538 | area with substrate ENLYFQR: 0.0645 | area with substrate ENLYFQS: 0.102
